Assay results published in the supplement of paper PMC10126150.
Values marked as one replicate rest on one cluster of the flow cell; about a third of the high ones do not repeat.
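Note: ATP exposure 15 min at 22 °C before imaging.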

These sequences were tested on ATP (assay: switch fluorescence ratio, 500 uM ATP over buffer (Cy3 cluster intensity, sum of 5 cycles each) (fold (ratio)); higher = stronger signal-on switching upon ATP binding; sequences stand for … in TCGTCGGCAGCGTCAGATGTGTATAAGAGACAGTTTTTTTTTTTTTTTTTTTTTTTTT…TC). Conditions: aptamer strand: ATP DNA aptamer (quencher-CACCTGGGGGAGTATTGCGGAGGAAGG + anchor), 100 nM annealed; ATP concentration: 500 uM; one replicate.
Outline: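 Switching-strand clusters labelled with Cy3 on a modified Illumina MiSeq flow-cell were annealed to 100 nM quencher-labelled ATP aptamer, imaged in selection buffer, and re-imaged after 15 min with 500 uM ATP at 22 °C. This was done over five cycles with NaOH stripping and re-annealing in between. The fluorescence ratio is summed target-cycle over summed buffer-cycle Cy3 intensity per cluster, averaged per switch-domain sequence, excluding clusters outside 100-1000 RFU.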
For CAATAGGTCC, the switch fluorescence ratio was 1.04. CAATAGTTCG was tested, and the switch fluorescence ratio was 1.01. CAATATATGA was tested, and the switch fluorescence ratio was 1.02. Sequence CAATCCCAT has a switch fluorescence ratio of 1.01. For CAATCCTTTG, the switch fluorescence ratio was 0.998. CAATCGAATC showed a switch fluorescence ratio of 1.02. In the case of CAATCGCTGA, the switch fluorescence ratio is reported as 1.04. For CAATCGGGGT, the switch fluorescence ratio was 0.992. Work on CAATCGTTGG yielded a switch fluorescence ratio of 0.987. CAATCTCTCG was tested, and the switch fluorescence ratio was 1.01. CAATGAACAA gave a switch fluorescence ratio of 0.988. CAATGACTCT was tested, and the switch fluorescence ratio was 1. For CAATGCGTGA, the switch fluorescence ratio was 1. Sequence CAATGCTGTT has a switch fluorescence ratio of 1.04. For CAATGGGACT, the switch fluorescence ratio was 0.972. CAATTAGCG gave a switch fluorescence ratio of 1. Sequence CAATTAGTGG has a switch fluorescence ratio of 0.95. With CAATTCAGG the switch fluorescence ratio was 1.01. Sequence CAATTCGTGT has a switch fluorescence ratio of 1. Sequence CAATTGCACG has a switch fluorescence ratio of 1.05. CAATTGCCCC was tested, and the switch fluorescence ratio was 1.06. With CAATTGTCTT the switch fluorescence ratio was 1.01. CAATTTAGGG gave a switch fluorescence ratio of 0.98. For CACAAACAGG, the switch fluorescence ratio was 1.45. CACAACCTAT was tested, and the switch fluorescence ratio was 1.01. For CACAAGGGCT, the switch fluorescence ratio was 0.954. CACAAGTTAA showed a switch fluorescence ratio of 0.971. CACAATGGCT gave a switch fluorescence ratio of 0.98. For CACAATTTTG, the switch fluorescence ratio was 1.01. In the case of CACACATTTT, the switch fluorescence ratio is reported as 0.971. Sequence CACACCCCTC has a switch fluorescence ratio of 1.18. With CACACTCTGC the switch fluorescence ratio was 1.08. In the case of CACACTGTCC, the switch fluorescence ratio is reported as 1.05. In the case of CACACTTTTT, the switch fluorescence ratio is reported as 0.961. For CACAGACGGG, the switch fluorescence ratio was 1.25. In the case of CACAGAGGGC, the switch fluorescence ratio is reported as 0.979. CACAGCGGTC was tested, and the switch fluorescence ratio was 1.36. In the case of CACAGGGCAG, the switch fluorescence ratio is reported as 0.971. CACAGGTCTG gave a switch fluorescence ratio of 1.02. CACAGTTTTA gave a switch fluorescence ratio of 1.03. With CACATAATGC the switch fluorescence ratio was 1.16. Sequence CACATAGCCG has a switch fluorescence ratio of 1.19. CACATCTAT showed a switch fluorescence ratio of 1.05. In the case of CACATCTCCC, the switch fluorescence ratio is reported as 1.17. CACATCTGGA was tested, and the switch fluorescence ratio was 0.965. For CACATCTGTC, the switch fluorescence ratio was 0.979. CACATGCTTC showed a switch fluorescence ratio of 1.05. In the case of CACATGGCCT, the switch fluorescence ratio is reported as 1.05. CACATTAAAT showed a switch fluorescence ratio of 0.983. CACATTTCAC gave a switch fluorescence ratio of 1.01. Work on CACCAAAT yielded a switch fluorescence ratio of 1. CACCAATCTC gave a switch fluorescence ratio of 1.19. For CACCAGCCGG, the switch fluorescence ratio was 1.01. CACCATCGTA gave a switch fluorescence ratio of 1.01. CACCATGCGA showed a switch fluorescence ratio of 1.11. CACCCATGGG gave a switch fluorescence ratio of 3.35. Work on CACCCCTGG yielded a switch fluorescence ratio of 1.2. In the case of CACCCGTTGT, the switch fluorescence ratio is reported as 1.04. CACCGAAGTT was tested, and the switch fluorescence ratio was 1. CACCGATCAA gave a switch fluorescence ratio of 1.32. Work on CACCGCTCAT yielded a switch fluorescence ratio of 2.25. CACCGGCCGG was tested, and the switch fluorescence ratio was 0.974. CACCTACTAC showed a switch fluorescence ratio of 1.36. Work on CACCTACTTT yielded a switch fluorescence ratio of 1.27. With CACCTCGTAG the switch fluorescence ratio was 1.03. CACCTGCTTC showed a switch fluorescence ratio of 1.11. CACCTGTCTG gave a switch fluorescence ratio of 0.993. Work on CACGATGATG yielded a switch fluorescence ratio of 0.949. CACGATGCT was tested, and the switch fluorescence ratio was 1.05. CACGATGGGT was tested, and the switch fluorescence ratio was 0.978. CACGCGCACT was tested, and the switch fluorescence ratio was 1.67. CACGCGGCCG was tested, and the switch fluorescence ratio was 1.05. CACGCGGGCA showed a switch fluorescence ratio of 0.997. Work on CACGCGTGAT yielded a switch fluorescence ratio of 0.965. CACGCTCGTT was tested, and the switch fluorescence ratio was 1.01. CACGCTGGTA gave a switch fluorescence ratio of 0.992. Sequence CACGGACGGG has a switch fluorescence ratio of 1.17. With CACGGACTTA the switch fluorescence ratio was 1.24. In the case of CACGGATGAC, the switch fluorescence ratio is reported as 1.11. Work on CACGGGGAGG yielded a switch fluorescence ratio of 0.997. CACGGTCGAA gave a switch fluorescence ratio of 1.01. For CACGGTTTTT, the switch fluorescence ratio was 0.971. Work on CACGTATGAA yielded a switch fluorescence ratio of 1.13. In the case of CACGTCGGCA, the switch fluorescence ratio is reported as 1.01. CACGTGCCCG showed a switch fluorescence ratio of 1.06. With CACGTTAAGT the switch fluorescence ratio was 1.14. CACGTTCTTC gave a switch fluorescence ratio of 1.02. For CACGTTTCTA, the switch fluorescence ratio was 0.959. For CACTAAGATT, the switch fluorescence ratio was 1.03. CACTAAGTGT gave a switch fluorescence ratio of 1.01. With CACTACGGGC the switch fluorescence ratio was 1.09. In the case of CACTACGTTT, the switch fluorescence ratio is reported as 1.01. CACTAGCG was tested, and the switch fluorescence ratio was 0.975. Sequence CACTAGGTGG has a switch fluorescence ratio of 0.994. CACTAGTCTA was tested, and the switch fluorescence ratio was 1.03. CACTCCGATG showed a switch fluorescence ratio of 1.55. CACTCGGGGC was tested, and the switch fluorescence ratio was 1.03. For CACTCTGCTC, the switch fluorescence ratio was 2.04. CACTGAATTG gave a switch fluorescence ratio of 1.03. CACTGAGCGG was tested, and the switch fluorescence ratio was 1.02. CACTGAGGAC gave a switch fluorescence ratio of 0.938. Sequence CACTGATTGT has a switch fluorescence ratio of 1.02. CACTGGACCG gave a switch fluorescence ratio of 1.09. For CACTGGGTGA, the switch fluorescence ratio was 1.03. For CACTTAAGTC, the switch fluorescence ratio was 1.04. Work on CACTTACAGC yielded a switch fluorescence ratio of 1.21. In the case of CACTTAGGC, the switch fluorescence ratio is reported as 1.1. Sequence CACTTAGGCG has a switch fluorescence ratio of 1.02. CACTTATAAT gave a switch fluorescence ratio of 1.03. With CACTTCGGGT the switch fluorescence ratio was 0.999. In the case of CACTTGCGAT, the switch fluorescence ratio is reported as 1.08. For CACTTGGACG, the switch fluorescence ratio was 1.04. CACTTGGGTA gave a switch fluorescence ratio of 0.986. CAGAAACCGA showed a switch fluorescence ratio of 1.94. For CAGAAAGAGG, the switch fluorescence ratio was 1.03. CAGAATACCT gave a switch fluorescence ratio of 1.12. Sequence CAGAATAGTG has a switch fluorescence ratio of 0.98. For CAGAATGACC, the switch fluorescence ratio was 0.99. CAGAATTCG gave a switch fluorescence ratio of 1.02. CAGAATTTAT was tested, and the switch fluorescence ratio was 0.991. CAGACAAAAT was tested, and the switch fluorescence ratio was 1.15. With CAGACATCT the switch fluorescence ratio was 1.04. In the case of CAGACATGCT, the switch fluorescence ratio is reported as 1.04. CAGACATTGA was tested, and the switch fluorescence ratio was 0.985. Sequence CAGACGCAGT has a switch fluorescence ratio of 2.3. CAGACGTGCT was tested, and the switch fluorescence ratio was 1.05. CAGAGAAGAC gave a switch fluorescence ratio of 1.07. With CAGAGACGA the switch fluorescence ratio was 1. With CAGAGACTA the switch fluorescence ratio was 1.03. With CAGAGAGACG the switch fluorescence ratio was 1.06. Sequence CAGAGCGTTT has a switch fluorescence ratio of 1.03. CAGAGCTAAG gave a switch fluorescence ratio of 1.1. CAGAGCTTCC was tested, and the switch fluorescence ratio was 2.27. Work on CAGAGGAGCA yielded a switch fluorescence ratio of 0.997. CAGAGGATAC gave a switch fluorescence ratio of 1.05. In the case of CAGAGGCG, the switch fluorescence ratio is reported as 1.02. For CAGAGGTCGA, the switch fluorescence ratio was 0.989. CAGAGTACCT was tested, and the switch fluorescence ratio was 1.05. In the case of CAGAGTAGGC, the switch fluorescence ratio is reported as 0.952. CAGAGTGCAG was tested, and the switch fluorescence ratio was 0.939. In the case of CAGAGTTTCG, the switch fluorescence ratio is reported as 1.02. CAGATACCCT showed a switch fluorescence ratio of 1.1. For CAGATCTGAG, the switch fluorescence ratio was 1.04. In the case of CAGATGACGA, the switch fluorescence ratio is reported as 1.01. CAGATGCGCC showed a switch fluorescence ratio of 1.02. In the case of CAGATGGTAG, the switch fluorescence ratio is reported as 0.988. Work on CAGATTTATT yielded a switch fluorescence ratio of 0.943. CAGCACATAT was tested, and the switch fluorescence ratio was 2.44. Sequence CAGCACGTTC has a switch fluorescence ratio of 1.19. Sequence CAGCACTATT has a switch fluorescence ratio of 1.06. With CAGCAGACGA the switch fluorescence ratio was 2.6. In the case of CAGCAGTCCT, the switch fluorescence ratio is reported as 1.13. CAGCATTACT showed a switch fluorescence ratio of 6.66. In the case of CAGCCGCCTA, the switch fluorescence ratio is reported as 1.45. Sequence CAGCCGTGCT has a switch fluorescence ratio of 1.03. Work on CAGCGATGTT yielded a switch fluorescence ratio of 1.04. Sequence CAGCGCGCCG has a switch fluorescence ratio of 0.975. CAGCGCTCT was tested, and the switch fluorescence ratio was 1.03. CAGCGGCAGC gave a switch fluorescence ratio of 1.01. CAGCGGCAGG gave a switch fluorescence ratio of 1.05. Sequence CAGCGGGCGG has a switch fluorescence ratio of 0.987. With CAGCGTTTTG the switch fluorescence ratio was 1.04. For CAGCTAACCG, the switch fluorescence ratio was 1.02. CAGCTCGGGT showed a switch fluorescence ratio of 0.977. With CAGCTCGTGG the switch fluorescence ratio was 0.945. CAGCTGAATG gave a switch fluorescence ratio of 0.952. Sequence CAGCTGATTG has a switch fluorescence ratio of 1.03. Sequence CAGCTGATTT has a switch fluorescence ratio of 1.04. CAGCTGGTGC showed a switch fluorescence ratio of 1.06. CAGCTGGTGG was tested, and the switch fluorescence ratio was 0.997. CAGCTTATGA showed a switch fluorescence ratio of 0.958. For CAGGAAAGTA, the switch fluorescence ratio was 0.988. Work on CAGGACATCG yielded a switch fluorescence ratio of 1.08. In the case of CAGGATGCAG, the switch fluorescence ratio is reported as 1.04. Sequence CAGGATTTGC has a switch fluorescence ratio of 1.02. With CAGGATTTGT the switch fluorescence ratio was 0.988. Work on CAGGCGAGGT yielded a switch fluorescence ratio of 0.983. CAGGCGTGAC gave a switch fluorescence ratio of 1.06. CAGGCGTTGA showed a switch fluorescence ratio of 1.04. For CAGGCTAGAG, the switch fluorescence ratio was 1.04. Sequence CAGGGAAATA has a switch fluorescence ratio of 0.99. CAGGGATATC gave a switch fluorescence ratio of 0.986. CAGGGATCGT gave a switch fluorescence ratio of 1.05. In the case of CAGGGCAGGC, the switch fluorescence ratio is reported as 0.934. With CAGGGCCTAC the switch fluorescence ratio was 0.969. Work on CAGGGCGCAG yielded a switch fluorescence ratio of 1.01. CAGGGCGCTT showed a switch fluorescence ratio of 0.985. In the case of CAGGGCGGAG, the switch fluorescence ratio is reported as 1.03. Work on CAGGGGAGTA yielded a switch fluorescence ratio of 1.09. CAGGGGATCA gave a switch fluorescence ratio of 0.945. CAGGGGCCAG showed a switch fluorescence ratio of 0.988. CAGGGGCCGT was tested, and the switch fluorescence ratio was 1. CAGGGGGAAG was tested, and the switch fluorescence ratio was 1.04. Sequence CAGGGTATGT has a switch fluorescence ratio of 0.984. Work on CAGGGTCTGT yielded a switch fluorescence ratio of 1.03. In the case of CAGGGTTC, the switch fluorescence ratio is reported as 0.945. CAGGTAGGT was tested, and the switch fluorescence ratio was 0.994. With CAGGTATCGG the switch fluorescence ratio was 1.02. Sequence CAGGTCATAA has a switch fluorescence ratio of 0.99. CAGGTCCATC gave a switch fluorescence ratio of 0.999. In the case of CAGGTCGGTT, the switch fluorescence ratio is reported as 0.944.
